We go through 56 variants from the RNAGym collection of RNA variant scans (doi:10.7554/elife.90254).

B1: LINE1-mini (parent)
chain: GGCAGAGCUCAACACAGCGUGGCAAAGUGGCUGUGGCUAGACUGCC

Read counts are not given, so values of variants with three or more changes are uncertain.

Variants of B1 are the subject of this data set. The data set is described as follows: self-cleavage, relative activity (ratio to wild type); higher = more cleavage; in vitro, sequencing; the parent is a self-cleaving ribozyme.
As to CACAGAGAUCUACACAGCGUGCCAAACUGGCUGUGGCUGGACUGCC [G1C G2A C8A A11U G22C G27C A39G], the self-cleavage amounted to 0.01. The result for CGCAGAGCUCAACACAGCCUGGCAAAGUGGCUGUGGCCAGACUGCC [G1C G19C U38C] reads 0.02; that for CGCAGAACUCAACACAGCGUGACAAAGUAGCUGUGGCUACACUGCC [G1C G7A G22A G29A G40C], 0.02.

Consider CGCAGAGCUCAACACAGGGUGGCACAGUGGCUGUGGCUAGAUUGCC [G1C C18G A25C C42U], for which the self-cleavage was 0.01. CGCAGAGCUCAAUACAGCGUGGCAAAGUGGCUGUGGCUAAACUGCC [G1C C13U G40A]: the self-cleavage was 0.01. The result for CGCAGAGCUCAAUACAGCGUGGUAAAGUGGCUGUGACUAGACUGCC [G1C C13U C23U G36A] reads 0.09; that for CGCAGAGCUCAACACAGAGUGGAAAAGUGGCUGUGGCUAGACUGCC [G1C C18A C23A], 0.07.

Turning to CGCAGACCUCAACACAGCGUGGCAAAGUGGCUCUGGCUAGACUGCC [G1C G7C G33C], the self-cleavage was 0.04.

For CCCAGAGCUCAACACAGCGUGGCAAAGUGUCUGUGGCUAGUAUGCC [G1C G2C G30U A41U C42A], the self-cleavage was 0.09. The result for CGCAGAGCUCAACACAGCGUGGCAAAGUUGCUGUGGCAAGACUGCC [G1C G29U U38A] reads 0.07; that for CGCAGAGCUCAACACAGCGUGUCAAAGUGGCUGUGGUUAUACUGCC [G1C G22U C37U G40U], 0.08; that for CGCAGAUCUCAACACAGCGUGGCAAAGUGGCUGUGGCUAUACUGCC [G1C G7U G40U], 0.11. Turning to CGCAAAGCUCAACACAGCGUGGCACAGUGGCUGUGGCUAGACUGCC [G1C G5A A25C], the self-cleavage was determined as 0.01. On to CGCAGAGCUCAACACACCGCGGCAAAGUGGCUGUGGCUAGACUGCC [G1C G17C U20C], for which the self-cleavage stood at 0.05.

As for CGCAGAGCACAACGCAGCGUGGCAAAGUGGCCGUGGCUUGACUGCC [G1C U9A A14G U32C A39U], the self-cleavage came to 0.

Regarding CGCAGAUCUCAAUAAAGCGUGGCAAAGUGGCUGUGGCCAGACUGCC [G1C G7U C13U C15A U38C], the self-cleavage worked out at 0.02.

On to CGCAGAGCUCAACACAGCGUGGCAAAGUGUCUGCGGCUAGACUGCC [G1C G30U U34C], for which the self-cleavage came to 0.01. The result for CGCAAAGCUCAACACAGCGUGGAAAAGUGGCGGUGGUUAUACUGCC [G1C G5A C23A U32G C37U G40U] reads 0.03. With CGCAGAGCUCAACACAGCGUGACAAAGUUGCCGUGGGUAGACUGCC [G1C G22A G29U U32C C37G], the self-cleavage worked out at 0.02. The result for CGCACUGCUCAACACAGCGUGGCAAAGUGGCUGUGGCUAGGCUGCC [G1C G5C A6U A41G] reads 0.03; that for CGCAGAUCUCAAAACAGCGUGGCAAAGUGGCUGUGCCUAGACUGCC [G1C G7U C13A G36C], 0.03.

As for CUCAGAGCUCAACACAGCGUGGCAAAGUGGCUGUGGCUAGAUUGCC [G1C G2U C42U], the self-cleavage was determined as 0.02.

As for CGCAGAACUCAACACAGCGUGGCAAAGUGGCUGUGACUAGACUGCC [G1C G7A G36A], the self-cleavage was 0.15. The result for CGCAGAGCUCAACACAGUGUGGCAAAGUAGCUGUGGCUAGACUGCC [G1C C18U G29A] reads 0.26; that for CGCACAGCUCCACACAGCGUGGCAAAAUGGCUUAGGCUAGACUGCC [G1C G5C A11C G27A G33U U34A], 0. The result for CGCAGAACUCAACAUAGCAUGGCAAAGUGGCUGUGGCUAGAUUGCC [G1C G7A C15U G19A C42U] reads 0.32; that for CGCAGAGCUCAACACAGAGUGGCAAAGUCGCUGUGGCUAGACUGCC [G1C C18A G29C], 0.11; that for CGCAGAGCUCAACACAGAGUGCCAAAGUGGCUGUGGCUAGACUGCC [G1C C18A G22C], 0.04. The result for CGCAGAGCUCAACACAGCGUGGCAAAGUAGCUGUGGCUAUACUGCC [G1C G29A G40U] reads 0.01; that for CGCACAGCUCAACACAGCGUGGCAAAGUGACUGUGGCUAGACUGCC [G1C G5C G30A], 0.03. For the variant CGCACAGCUGAACACGGCGUGGCAAAGUGGCUGUGGAUAGACUGCC [G1C G5C C10G A16G C37A], the self-cleavage was 0.02. In the case of CGCAGAGCUCAAGACAGCGUGGCAAAGUGGCUGUGGCUAGACUGCG [G1C C13G C46G], the self-cleavage turned out to be 0.05. The result for CGCAGAGCUCAACACAGCGUGGCAAAGUGGAUGAGGCUUGACUGGC [G1C C31A U34A A39U C45G] reads 0.01; that for CGCACAGCUCAACACUGCGUGGCGAAGUGGCUGUGGCUAGACUGUC [G1C G5C A16U A24G C45U], 0.01. Take CGCAGAUCUCAACACAGCGUGGCAAUGUGGCUGCGGCUAGACUGCG [G1C G7U A26U U34C C46G]: the self-cleavage was 0.01. The result for CGCAGAACUCAACACAGCGUGGGAAAGUGGCUCUGGCUAGACUGCC [G1C G7A C23G G33C] reads 0.06; that for CCCAGAGCUCAACACAGCGUGGCAAAGUGGCUGUCGCCAGACUGCC [G1C G2C G35C U38C], 0.01. The result for CUCAGAGCUCAACACAACGUGGCAAAGUGGCUGUGCCUAGACUGCC [G1C G2U G17A G36C] reads 0.01. The result for CGCAGAGCUCAACACAGCGUGGCAAAGUGGCUGUGUCUAGACUGAC [G1C G36U C45A] reads 0.

With CGCAGAGCACAACACAGCGUGGCAAAGUGGCUGUGGCUAGACUGGC [G1C U9A C45G], the self-cleavage came to 0.02.

On to CGCAGAGCUCAACACAUCGUGGGGAAGUGCCUGUGGCUCGACAGUC [G1C G17U C23G A24G G30C A39C U43A C45U], for which the self-cleavage is 0.

As to CGCAGAGCUCAACACAGCCUGGUAAAGUGGCUGUGGCUAGACUGCC [G1C G19C C23U], the self-cleavage turned out to be 0.06. The result for CGCAGAGCUCAACACAGCGUCGCAAAGUGGGUGUGGCUAGACUGCC [G1C G21C C31G] reads 0.05. The result for CGCAAAGCUCAACACAGCGUGGCAAAGUGGCUGUGGCAAGACUGCC [G1C G5A U38A] reads 0; that for CGCAGAGCUCAACACAGCGUGGUAAAGUGGGUGUGGAUAGACUGCU [G1C C23U C31G C37A C46U], 0.01. The result for CGCAGAGCUCAACAAAGCGUUGCAAAGUGGCUGUGGCUAGACUGCU [G1C C15A G21U C46U] reads 0.04; that for CGCAGAGCUCAACAAAGCGUGGCAAACUGGCUGUGCCUAGACUGCC [G1C C15A G27C G36C], 0.01. On to CCCAGAGCUCAACACAGCGUGGGAAAGAGGCUGUGGCUAGACUGCC [G1C G2C C23G U28A], for which the self-cleavage amounted to 0.03. CUCAGAGCUCAACACUGCGUGGCAAAGUGGCUGCGGCUUGACUGCG [G1C G2U A16U U34C A39U C46G]: the self-cleavage came out at 0.01.

For CGCAAAGAUCAACAGAGCGUGGCAAAGUGGCAGUGGCUAGACCGCC [G1C G5A C8A C15G U32A U43C], the self-cleavage was determined as 0.05.

On to CGCAGAUCUCAACCCAGCGUGGCAAAGUGGCUGUUGCUAAACUGCC [G1C G7U A14C G35U G40A], for which the self-cleavage is 0.02. For the variant CGCAGAGCUCAACACAGCAUGCCAAAGAGGCUGUGGCUAGACUGCC [G1C G19A G22C U28A], the self-cleavage worked out at 0.03. The result for CGCAUAGCUCAACACAGCGUGGCAAAGUGGCUGUGGUGAGACUGCC [G1C G5U C37U U38G] reads 0.01; that for CGCAGAGCUCAACAAAGCGUGGCAAAGUGGCUGUGGCAAGACUGCC [G1C C15A U38A], 0.02; that for CGCAGAGCUCAAUACAGCGUCGCAAAGUGGCUGUGGCUAGACUGCC [G1C C13U G21C], 0.03. The result for CGCAUAGCUCAACACAGCGUGGCGAAGUGGCUGUGGCUAGACUGCC [G1C G5U A24G] reads 0.01.
